# Reference: the supplement of paper PMC11417369
# ± gives the standard deviation of the averaged measurements. Some of the results follow.
# System: PfAP2-I AP2 domain 3 (GST-tagged)
# Experiment: gcPBM binding intensity (ln(normalized median fluorescence intensity)); higher = stronger DNA binding
# Summary of the method: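 Each value is the highest Masliner-normalised natural-log median intensity across replicate spots of either orientation of a probe. The probes were primer-extended double-stranded 36-bp intergenic genomic sequences on an Agilent 4 × 180k array, alongside negative controls, exposed for 1 h to GST-tagged P. falciparum DNA-binding domains expressed in E. coli. Bound protein was picked up with Alexa488 anti-GST antibody and scanned at 488 nm.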
row,Sequence,gcPBM binding intensity (ln)
1,GAAGTAATTTCATATACACACATATACATACATACA [CACACA_site6753],8.47 ± 0.79
2,GACCACTTTAGGATTTGTACACATATTATATATGCA [XGTACX_site6579],8.25 ± 0.59
3,TACACAAACAAACACACACACACACCCCCACAAAAA [CACACA_site2428],9.7 ± 0.16
4,TAGCCATTTTTATATTGTACTTATATAATCACATTT [XGTACX_site4407],7.7 ± 0.64
5,ATAAAAAAAAATAACACACAGACATAAGAATAAATA [CACACA_site4162],7.78 ± 0.67
6,ATATAAGAAAAGCACACACACACAAAAAAAAAAAAA [CACACA_site2827],8.48 ± 0.18
7,ATTAAAAAAAATATATATGTATAAAACAAGCAAAAT [XGTACX_negctrl_site474],8.04 ± 0.64
8,TATAATAATAAAAACACACACGTTGATTGTATTAGC [CACACA_site5336],7.62 ± 0.89
9,TATAATGATAATAATAGTACACATTAGAACGGGAGG [XGTACX_site2563],8.29 ± 0.41
10,CCTATTATTTCTAAAACACACAAAAATATAAAAGAA [CACACA_site2708],7.92 ± 0.59
11,ATAATATTATTTAAAAGTACTAACAAAAGAATATTA [XGTACX_site4989],7.78 ± 0.38
12,TCTTTTTTTTATTATATCATTGAAATGTTAAAACGA [XGTACX_negctrl_site473],7.67 ± 0.57
13,TTTTGATAGAAGTGTTCTAGGAATTCAACTGTAATA [GTGCAC_negctrl_site585],7.58 ± 0.76
14,TGAAAAAAAAAATACACACACGAGTTGTTATACATA [CACACA_site7486],7.44 ± 0.78
15,ATTAAAAAAATTGGCACACATAAAAATATATAAAAA [CACACA_site2748],8.21 ± 0.33
16,GTTTTTAATGTTTTGACATGCAATATTAAAAATAAT [TGCATGCA_site174],7.83 ± 0.67
17,AACAGATATGAATAGAAAAAAAAAAATGGCCCATAT [TGCATGCA_negctrl_site443],7.42 ± 0.74
18,CATACATACATACATACATGCATACATACATACATA [TGCATGCA_site218],8.95 ± 0.73
19,CATAATTTAAAAAAGGTGCAAAATGGATAATATATA [GTGCAC_site9657],11.1 ± 0.57
20,TTTTTTTTCATTTTATGTACACATAATTTAATATAT [XGTACX_site5768],8.16 ± 0.45
21,ATATATATATATATATGTACATATGTTTGTTTCCGC [XGTACX_site5167],9.44 ± 0.62
22,ATATACATATATATATGTACTTATTTATTTATTTAT [XGTACX_site2532],7.72 ± 0.4

row,Sequence,gcPBM binding intensity (ln)
1,AAAAAGTGACTCCTTACACACTTTACATAATTTAGG [CACACA_site8176],7.68 ± 0.62
2,GCAATTTTTTTTAAGAGTACTAATATATTATAGTGG [XGTACX_site7316],7.83 ± 0.16
3,TTTTTTTAATAGTGTGCACACAATATACAGAAAAAA [CACACA_site8399],10.1 ± 0.11
4,ATATATATATATATATGTACACATAAAAAGAAAGAA [XGTACX_site1603],9.56 ± 0.67
5,AACATTATATATTGCAGTACTCCCATATGTTGATAA [XGTACX_site3119],9.06 ± 0.11
6,TATATACCTATATACACACACATATATTATAGATAT [CACACA_site6266],7.78 ± 0.44
7,TTTAGTTGTGAGAATTGTACATATTTTCCTTTTACC [XGTACX_site7291],7.88 ± 0.35
8,TATATATATGAACAATGTACGTATAATATTTTTATT [XGTACX_site7561],7.72 ± 0.57
9,GATCTATACTATAATACACACATTTGATGAATGTAA [CACACA_site6163],7.87 ± 0.42
10,AAAAAAATTAAAAATTAAAATTAAAAATAATATATA [GTGCAC_negctrl_site466],6.95 ± 0.61
11,AATGTATAAATCCATACACACATAAATTTTAATAAT [CACACA_site2363],7.59 ± 0.57
12,TTCATAAAATGTGTCTGTACGTAAATGTATTACACT [XGTACX_site3179],7.78 ± 0.5
13,CTGTCTGCAGATATGGTGCATTTGTAAGATCTTACA [GTGCAC_site9870],10.8 ± 0.42
14,TTTATATTTATGATGGGTACACAAAATTTTACCCAT [XGTACX_site1504],7.88 ± 0.16
15,TAATTTCTTTAGGGGGTGCTTTTATAGTTTTTATTA,10.21 ± 0.035
16,ATTATGTGTCCACATGTAAGCTATCTTACTTATATA [CACACA_negctrl_site1227],7.87 ± 0.49
17,ATAGTTACACAATGGTGTACAAGTCAATATATTTCT [XGTACX_site4614],7.95 ± 0.33
18,TACAAAAAAATAAAAAAAATTAAATAAATAAATATA [CACACA_negctrl_site45],7.12 ± 0.59
19,CATATTTGTGGACACACACACATATTTATATATATA [CACACA_site5887],8.47 ± 0.42
20,ACTAAAAAATATATATGTACATAATAATATATTATT [XGTACX_site1260],7.88 ± 0.36
21,ATTTATACTTATGTATGTACATATATACATATGTAT [XGTACX_site3979],7.58 ± 0.41
22,TATCCTTATATTTGCACACACACACTAGAAAATGAA [CACACA_site4714],9.92 ± 0.27
